The source of these data is ChEMBL document CHEMBL1157539, “Thousands of chemical starting points for antimalarial lead identification” (Nature, 2010).

Structures are written as SMILES. The full ranking holds about 13,000 compounds; the median of “IFI” is about 4, and the highest 2% start at about 17. The list shows a part of the results.

This experiment is described as follows: GSK_TCMDC: Inhibition Frequency Index (IFI). The number of non-kinase HTS assays where a compound showed > 50 % inhibition, expressed as a percentage of the number of such assays in which the compound was tested (-0 is zero). In kind it is functional.
With `Clc1ccc(-c2nc(-c3ccncc3)c[nH]2)cc1Cl`, the IFI was 3.33%.

Regarding `CC(C)COc1ccc(Cl)cc1Cc1ccc(-c2nc3c(F)cccc3[nH]2)o1`, the IFI was 15.5%.

Compound `NC(=O)c1ccsc1NC(=O)CNC(c1ccc(F)cc1)c1cccs1` (stereo not given) displayed an IFI of 3.7%.

As for `C=CCn1c(SCc2c(C)noc2C)nc2scc(-c3cccs3)c2c1=O`, the IFI is 3.92%.

`CNC(=O)c1ccc(/C=C/C(=O)N2CCc3ccc(-c4ccccc4)cc3C2c2cccc(C(F)(F)F)c2)cc1` (stereo not given) came in with an IFI of 1.53%.

The compound `O=C(/C=C/c1ccc(Cl)c(Cl)c1)NCC1CCN(Cc2ccc(O)cc2)CC1` registered an IFI of 2.01%.

Compound `COc1ccc2nccc([C@@H](O)CN3CCC(NC(=O)C(c4cc5ccccc5o4)N4CCN(c5ccc(F)cc5)CC4)CC3)c2c1` (stereo not given in full) yielded an IFI of 4.17%.

With `CCOc1cc(C(C)C)ccc1N1CCN(CCCCNC(=O)c2ccc(NC(=O)c3ccc(Cl)cc3)cc2)CC1`, the IFI came to 2.59%.

The compound `CNCCNCc1ccc(-c2ccc(-c3nc4cc(F)ccc4[nH]3)s2)cc1` yielded an IFI of 7.92%.

Consider `O=S(=O)(c1cccc2cccnc12)N1CCN(C2CCCCC2)CC1`, for which the IFI was -0%.

`Cc1c(F)cc(C(=O)NC2CC2)cc1-c1ccc2c(cnn2S(=O)(=O)c2ccc(Cl)s2)c1` yielded an IFI of 2.24%.

`CCCCOc1ccc(-c2nc3ccccc3[nH]2)cc1` registered an IFI of 2.14%.

On to `Cc1sc(NC(=O)Cc2cccc(C(F)(F)F)c2)nc1-c1cccc(Cl)c1`, for which the IFI was found to be 3.7%.

Turning to `CN1CCN(CC(=O)Nc2cccc(-c3ccc(-c4nc5cc(F)ccc5[nH]4)s3)c2)CC1`, the IFI amounted to 4.5%.

On to `c1ccc(Oc2ccc(Nc3ccnc4cc(-c5csc(CNCCN6CCOCC6)n5)ccc34)cc2)cc1`, for which the IFI amounted to 2.24%.

`COc1ccc(CC(=O)Nc2ccc(Nc3nc(C)cc(N4CCCC4)n3)cc2)cc1` registered an IFI of 15.4%.

Turning to `Cc1ccc2c(c1)NCC21CCN(C[C@@H](O)C2CCN(c3cc(C#N)ccn3)CC2)CC1C` (stereo not given in full), the IFI was -0%.

Turning to `c1ccc(Oc2ccc(Nc3ccnc4cc(-c5cccc(CNCCN6CCOCC6)c5)ccc34)cc2)cc1`, the IFI was 5.88%.

Compound `CN1CCC(N(Cc2ccc(-c3ccc(Cl)cc3)cc2)C(=O)Cn2c(CCc3cccc(F)c3F)cc(=O)c3ccccc32)CC1` registered an IFI of 14.4%.

As to `COc1cc(NC(=O)N2CCOC(CCN3CCC(c4ccccc4)CC3)(c3ccc(Cl)c(Cl)c3)C2)cc(OC)c1` (stereo not given), the IFI was 6.8%.

The compound `CCc1c(CCNCCCCCCNC(C)(C)Cc2ccc3c(c2CC)OCO3)ccc(OC)c1OC` came in with an IFI of 6.38%.

With `O=C(CN1CCN(S(=O)(=O)C=Cc2ccccc2)CC1)Nc1cc(C(F)(F)F)ccc1Cl`, the IFI came out at 0.81%.

The compound `O=C(Nc1ccc(Cl)cc1)c1ccc(S(=O)(=O)NCC2CCN(CC3CCCCC3)CC2)cc1` showed an IFI of 9.18%.

In turn, `CN1CCCN(Cc2cccc(-c3cccc(NC(=O)c4cccc(C#N)c4)c3)c2)CC1` gave an IFI of 3.81%.

`CN1CCc2ccc(NC(=O)Nc3ccc(Cl)c(Cl)c3)cc2C1` registered an IFI of 1.72%.

In the case of `CC1(C)C=C(c2ccncc2)c2cc(Cl)ccc2O1`, the IFI stood at 2.82%.

Regarding `Cc1cc(=NN=Cc2ccc(Cl)cc2)c2ccccc2[nH]1`, the IFI amounted to 0.7%.

In turn, `COc1cc(CCCON2C(=N)N=C(N)NC2(C)C)cc(OC)c1OC` came in with an IFI of 2.17%.

Compound `O=S(=O)(c1cc2ccccc2s1)N(CCC(O)(C(F)(F)F)C(F)(F)F)Cc1cccc(O)c1` registered an IFI of 1.45%.

`CCCc1cc(Cc2cnc(N)nc2N)cc2c1OC(C)(C)C2` had an IFI of 4.96%.

Turning to `Cc1cc(C)c(O)c(-c2cc(C(=O)Nc3ccc(S(=O)(=O)N4CC(C)OC(C)C4)cc3)[nH]n2)c1` (stereo not given), the IFI is 6.06%.

`CC[C@H](C)CNC(=O)c1cncc(-c2ccc(CNC3CCCC3)cc2)c1` yielded an IFI of 1.61%.

`COc1ccc(Cn2c(Nc3cccc(C(F)(F)F)c3)nc3cc(C(=O)NC4CC4)cnc32)cc1Cl`: the IFI turned out to be 2.24%.

On to `O=C(Nc1cccc(-c2nn3ncccc3c2-c2ccnc(Nc3cccc(C(F)(F)F)c3)n2)c1)c1c(F)cccc1F`, for which the IFI was 4.35%.

For `COc1cccc(C=NN=c2cc(C)[nH]c3ccccc23)c1`, the IFI was determined as 1.41%.

In turn, `Cc1cc(C)c(NC(=O)NC2CCN(CCCCCNC(=O)/C=C/c3ccc(Cl)c(Cl)c3)C2)c(C)c1` (stereo not given) came in with an IFI of 2.22%.

`N#Cc1cccc(C(=O)NC2CCN(c3ccnc(Nc4ccc(F)cc4)n3)C2)c1` (stereo not given) returned an IFI of 1.54%.

`Cc1ccc(C(CC(=O)Nc2nccs2)c2ccc(OC(C)C)cc2)cc1` (stereo not given) registered an IFI of 3.39%.

In turn, `C[C@H](Cc1ccc(OCCCCOc2ccc(C[C@@H](C)NC[C@H](O)c3cccc(Cl)c3)cc2)cc1)NC[C@H](O)c1cccc(Cl)c1` gave an IFI of 11.6%.

In turn, `CC(=O)c1ccc(N2C(=O)C3C(Cc4ccc(OC(C)(C)C)cc4)NC4(C(=O)N(Cc5ccc(C(C)(C)C)cc5)c5ccccc54)C3C2=O)cc1` (stereo not given) yielded an IFI of 0%.

The compound `FC(F)(F)c1ccc2[nH]c(-c3ccc(-c4cccc(CNCCc5ccncc5)c4)s3)nc2c1` registered an IFI of 8%.

`Clc1ccc(Sc2cncnc2N2CCOCC2)cc1` had an IFI of 1.49%.

`COc1ccc(C(=O)Nc2nonc2-c2ccc(OC)c(OC)c2)cc1Cl` showed an IFI of 4.17%.

For `CCOc1cc2ncnc(Nc3ccc(OCc4ccccc4F)c(Cl)c3)c2cc1OCC`, the IFI is -0%.

Take `COCCN1CCN(Cc2cccc(-c3ccc(-c4nc5ccccc5[nH]4)cc3)c2)CC1`: the IFI stood at 5.88%.

As for `COc1ccc2nc(C)cc(Nc3ccc(Oc4ccc(Cl)c5ccccc45)c(Cl)c3)c2c1`, the IFI is 6.92%.

Turning to `CN(C)c1ccc(CN2CCC(CNC(=O)c3cc(-c4ccccc4Cl)cs3)C2)cc1` (stereo not given), the IFI worked out at 6.12%.

`N#Cc1ccc2c(c1)CCN(CCC1CCC(NC(=O)c3cc4ccc(Br)cc4[nH]3)CC1)C2` (stereo not given) yielded an IFI of 4.41%.

In turn, `CCCCNc1cc(NCCCC)c2c(n1)[nH]c1ccccc12` showed an IFI of 19.4%.

Consider `COc1cc(NC(=O)c2c(-c3c(Cl)cccc3Cl)noc2C)c(OC)cc1Cl`, for which the IFI amounted to 1.96%.

`Cn1cc(Br)c(-c2cccc(Nc3ccnc4cc(-c5nccs5)ccc34)c2)n1` came in with an IFI of 6.57%.

`Cc1cc(NCCc2ccccc2)nc(NC(=N)Nc2cccc(Cl)c2)n1`: the IFI was found to be 5.26%.

Compound `Cc1nnsc1C(=O)Nc1ccc(-c2cccc(-c3nc4cc(F)ccc4[nH]3)c2)cc1` had an IFI of 5.5%.

The compound `COc1cc(NC(=O)c2sc(-c3ccc(Cl)cc3)cc2NC(=O)c2ccncc2)ccc1OCCN1CCCC1` yielded an IFI of 10.7%.

In turn, `C[C@H](NC(=O)c1cc(-c2ccc(C(C)(C)C)cc2)no1)C(=O)O.C[C@H](NC(=O)c1conc1-c1ccc(C(C)(C)C)cc1)C(=O)O` showed an IFI of 0%.

`CCCN(CC1CC1)c1ncc(-c2cccc(CNCCC3CCCN3C)c2)cn1` (stereo not given): the IFI amounted to 12%.

`CC[C@H](C)CNC(=O)c1cncc(-c2ccc(CN3CCC(N4CCCC4)CC3)cc2)c1`: the IFI is 4.69%.

Regarding `c1ccc(C(c2cccs2)N2CCN(Cc3ccc(OCCCN4CCCCC4)cc3)CC2)cc1` (stereo not given), the IFI stood at 10.7%.

Take `CCCC(=O)Nc1ccc(OCCCCN(Cc2ccccc2C(F)(F)F)c2ccc(C(F)(F)F)c(C#N)c2)cc1`: the IFI was -0%.

In turn, `Cc1cccc2nc(-c3ccc(-c4cccc(NC(=O)C(C)CN(C)C)c4)s3)[nH]c12` (stereo not given) yielded an IFI of 2.7%.

The compound `COc1ccc2nc(C)cc(NC3Cc4ccccc4C3)c2c1` gave an IFI of -0%.

Compound `Cc1cc(-c2ccc(NC(=O)c3coc4ccc(N5CC(C)N(C)C(C)C5)cc34)cc2C)cc(C)n1` (stereo not given) gave an IFI of 3.68%.

On to `CNC(=O)c1ccc2nc(C3CC3)n(CC3CCN(S(=O)(=O)c4cccc(Cl)c4)CC3)c2c1`, for which the IFI is 0.74%.

On to `O=C(Nc1cccc(-c2ccc(-c3nc4cc(C(F)(F)F)ccc4[nH]3)cc2)c1)c1csnn1`, for which the IFI is 3.6%.

In the case of `OC(CNCCc1ccccc1)Cn1c2ccc(Cl)cc2c2cc(Cl)ccc21` (stereo not given), the IFI is 9.09%.

Regarding `CCCOc1ccc(-c2nonc2NC(=O)c2ccccc2OC)cc1OCCC`, the IFI was determined as 2.44%.

Turning to `c1ccc(CCNc2nc(NCC(c3ccccc3)c3ccccc3)c3nc[nH]c3n2)cc1`, the IFI stood at 8.09%.

`Cc1cccc(-c2cccc3c(NC(=O)N4CCc5cc6nccc(N7CCN8CCC[C@H]8C7)c6cc54)cccc23)n1` displayed an IFI of 5.59%.

In turn, `O=c1cc(NCCCNC2CCCc3c2ccc2ccccc32)[nH]c2ccccc12` (stereo not given) registered an IFI of 2.96%.

In turn, `CCCCCCCc1[nH]c2ccccc2c(=O)c1C` returned an IFI of 10.1%.

Turning to `COc1ccc(CNc2cc(C)nc3sc4c(c23)CCC2(C4)OCCO2)cc1`, the IFI was 0.73%.

`Cn1nc(C(F)(F)F)c(-c2ccc(F)cc2)c1NC(=O)Nc1ccc(F)cc1` gave an IFI of 12.5%.

As to `Cc1c[nH]c(CCNC(=O)c2cc(-c3ccc(Cl)cc3)cs2)n1`, the IFI worked out at 1.37%.

In turn, `O=C(Nc1ccc(OC2CCN(Cc3ccc(F)cc3)C2)c(Cl)c1)c1ccco1` (stereo not given) returned an IFI of 1.64%.

Compound `N#Cc1ccc(CN2CCC(Oc3ccc(NC(=O)c4ccccc4)cc3Cl)CC2)cc1` yielded an IFI of 7.81%.

With `Nc1ncc(-c2ccsc2)c2ccc(-c3ccc4cn[nH]c4c3)cc12`, the IFI was determined as 1.5%.

The compound `O=C(C=Cc1ccc(Cl)c(Cl)c1)NCCCCCN1CCCC(CCCNC(=O)/C=C/c2ccccc2)C1` (stereo not given) came in with an IFI of 7.41%.

With `COc1ccc(NC(=O)[C@H](Cc2ccccc2)Nc2cc(C)nc(NCCc3ccccn3)n2)cc1`, the IFI worked out at 9.09%.

For `Nc1nc(N)c2c(ccc3c2ccn3CCCCO)n1`, the IFI was 1.37%.

The compound `CCCc1cc(Cc2cnc(N)nc2N)c2cccnc2c1OC` returned an IFI of 0.81%.

In turn, `CC1(C)N=C(N)N=C(N)N1OCCc1ccc2ccccc2c1` had an IFI of 4.26%.

In the case of `O=[N+]([O-])c1ccc2c(c1)c1ccccc1n2Cc1ccccc1O`, the IFI worked out at 5.98%.

`COc1ccc2c(OC)ccc(CNCCCCCCNCc3ccc(OC)c4ccc(OC)cc34)c2c1`: the IFI worked out at 14.2%.

Consider `CCN(CC)CCOc1ccc(N(Cc2ccc(C(C)(C)C)cc2)C(=O)c2ccc(Cc3ccccc3)cc2)cc1OC`, for which the IFI was 5.84%.

`O=C(Nc1ccc(C(F)(F)F)cc1)c1cc(Cl)cc2nc(C(F)(F)F)[nH]c12`: the IFI was determined as 23.4%.

`CC(CN1CCN(C)CC1)C(=O)Nc1ccc(-c2cccc(-c3nc4cc(F)ccc4[nH]3)c2)cc1` (stereo not given): the IFI is 2.78%.

As for `CCN1CCC(N(Cc2ccc(-c3ccc(C(F)(F)F)cc3)o2)C(=O)Cn2c(CCc3cccc(F)c3F)nc(=O)c3ccccc32)CC1`, the IFI turned out to be 6.29%.

For the compound `Cc1ccc(S(=O)(=O)c2nc(S(=O)(=O)c3ccccc3)sc2NCC2CCCO2)cc1` (stereo not given), the IFI came to 4.65%.

In turn, `Cn1c(NCc2cc(F)cc3c2OCOC3)nc2cc(Nc3ccnc(Nc4cccc(CS(C)(=O)=O)c4)n3)ccc21` came in with an IFI of 2.96%.

The compound `COc1ccc(Cn2c(Nc3cccc(C(F)(F)F)c3)nc3cc(C(=O)NCCCN(C)C)ccc32)cc1Cl` registered an IFI of 2.14%.
